# Results as given in PubChem BioAssay AID1768 (National Center for Advancing Translational Sciences (NCATS), 2009).
# “And” between values parts separate entries of the source, which are not always exact repeats. Equal values may be shown once. Among all 270,000 compounds or so, about 620 (0.23%) were called active. Inconclusive means that the source gave no clear call. Such entries were picked first, then a sample of the others. The call rests on the fitted dose curve; in most records, active means well fitted inhibition curve with a large enough effect in the polarisation, with a control signal flat (not every such curve was filed as active); inconclusive means small, poorly fitted or top-dose-only effect, or effect the other way, or a change in a side signal; inactive means no such curve, though single readings can be large or run the other way; the % refers to the polarisation. Potencies beside an inconclusive call are fits to weak or partial responses and may not hold up. “Side channel” marks fits to a control or component signal instead of the main read-out.
# Target: Menin (Homo sapiens) (UniProt O00255)
# Experiment: qHTS Assay for Inhibitors Targeting the Menin-MLL Interaction in MLL Related Leukemias: Competition With Texas Red Labeled MLL-derived Mutant Peptide
# Conditions: fluorescence polarization; series mostly up to 61.6 µM
# Potency means the concentration at half of the fitted maximal effect; tags describe the fitted curve by direction and shape or compound fluorescence and quenching.
# Chain of UniProt O00255 (O00255 whole entry, looked up): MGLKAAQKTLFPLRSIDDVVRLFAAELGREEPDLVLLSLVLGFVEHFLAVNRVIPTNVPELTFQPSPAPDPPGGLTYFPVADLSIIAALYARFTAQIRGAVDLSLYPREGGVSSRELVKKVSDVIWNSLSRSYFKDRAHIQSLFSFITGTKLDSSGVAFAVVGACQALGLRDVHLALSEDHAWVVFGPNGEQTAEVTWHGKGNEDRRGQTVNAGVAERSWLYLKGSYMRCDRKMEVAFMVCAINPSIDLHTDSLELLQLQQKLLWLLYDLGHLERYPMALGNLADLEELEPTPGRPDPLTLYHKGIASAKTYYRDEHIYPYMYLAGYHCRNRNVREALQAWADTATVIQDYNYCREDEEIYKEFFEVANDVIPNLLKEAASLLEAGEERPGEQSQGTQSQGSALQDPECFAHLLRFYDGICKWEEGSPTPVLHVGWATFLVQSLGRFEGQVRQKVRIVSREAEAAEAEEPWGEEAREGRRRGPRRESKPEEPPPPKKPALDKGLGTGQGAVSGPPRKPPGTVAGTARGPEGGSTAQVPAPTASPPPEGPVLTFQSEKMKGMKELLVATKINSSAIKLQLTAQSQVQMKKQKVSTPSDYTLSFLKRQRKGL
row,Structure (SMILES),Potency
1,CCO[C@H]1OC(C(=O)N2CCN(Cc3ccccc3)CC2)=C[C@@H](c2ccccc2)[C@@H]1CCCO,"inconclusive: 6.31 µM [fluorescent, side channel, partial curve]"
2,O=C1/C(=C\c2cccnc2)CCc2ccccc21,inactive
3,CCOc1cccc2sc(NN)nc12,"inconclusive: 25.1 µM [quencher, side channel, partial curve]"
4,COc1ccccc1N1CCN(C(=O)CCCN2C(=O)c3cccc4cccc(c34)C2=O)CC1,"inconclusive: 35.5 µM [inhibitor, single point]"
5,COc1ccc(-c2nnc(SCC(=O)NCCC(C)C)nc2-c2ccc(OC)c(OC)c2)cc1OC,"inconclusive: 15.8 µM [fluorescent, side channel, partial curve]"
6,CC(C)Cn1c(N)c(C(=O)COC(=O)c2cc(C(F)(F)F)nc3ccccc23)c(=O)n(C)c1=O,"inconclusive: 15.8 µM [quencher, side channel, partial curve] and inconclusive: 5.01 µM [quencher, side channel, full curve, poor fit]"
7,CN(C)S(=O)(=O)c1cc(NC2CC(=O)N(c3ccc(F)cc3)C2=O)ccc1Cl (stereo not given),"inconclusive: 12.6 µM [quencher, side channel, partial curve]"
8,Clc1cccc(CSc2nnc(-c3c[nH]c4ccccc34)o2)c1,"inconclusive: 39.8 µM [quencher, side channel, single point]"
9,CCOC(=O)C1CCN(Cc2c(O)c3ccccc3oc2=O)CC1,"inconclusive: 35.5 µM [quencher, side channel, single point]"
10,Cc1cc(C)c(C#N)c(=N)o1,inactive
11,CCNC(=S)N(Cc1ccc2c(c1)OCO2)C1CC(=O)N(c2ccc(F)cc2)C1=O (stereo not given),"inconclusive: 28.2 µM [quencher, side channel, partial curve]"
12,O=C(CNC(=O)c1ccccn1)N=Nc1c(O)[nH]c2ccccc12,"inconclusive: 31.6 µM [quencher, side channel, single point]"
13,COc1ccc(-n2c(SCC(=O)N(C)c3ccccc3)nc3c([nH]c4ccccc43)c2=O)cc1OC,"inconclusive: 28.2 µM [fluorescent, side channel, partial curve]"
14,COc1ccc(CC(=O)Nc2nc(-c3cccc([N+](=O)[O-])c3)cs2)cc1,"inconclusive: 11.2 µM [quencher, side channel, single point]"
15,O=[N+]([O-])c1ccccc1/C=C/C=N/Nc1ccc(S(=O)(=O)Nc2ccc(Cl)cc2)cc1[N+](=O)[O-],"inconclusive: 3.98 µM [quencher, side channel, partial curve]"
